Experimental data from patent US20090214547A1.

Molecular target: Peptide GNT-07
Test: peptide ELISA, plate 1

B1: 22-1C11.1 (antibody, V domains shown)
VH: VKLQESGGGVVQPGRSLRLSCAASGFTFSNYGMHWVRQAPGKGLEWVAVIWYDGSNKYYADFVKGRFTISRDNSKNTLYLQMNSLRAEDTAVYYCARRGNYYGLGSFYYYGMDVWGQGTTVTVSS
VL: DIQMTQSPATLSLSPGERATLSCRASQSVSSYLAWYQQKPGQAPRLLIYDASNRATGIPARFSGSGSGTDFTLTISSLEPEDFAVYYCQQCSNWHPTFGQGTKLEIKR
  Elisa reading: 0.24, 0.58, 1.01 [lines of one column]

Certain results were filed several times, with different values. This list holds those alone. The source may hold further records. Values that stand side by side seem to repeat one measurement; one of them may be the mean.
